From the RNAGym collection of RNA variant scans (doi:10.1073/pnas.2313332121)
Variants at the floor of the assay are shown more often than the library holds them.

B1: TPR 5TU (parent)
chain: GGAUCUUCUCGAUCUAACAAAAAAGACAAAUCUGCCACAAAGCUUGAGAGCAUCUUCGGAUGCAGAGGCGGCAGCCUUCGGUGGCGCGAUAGCGCCAACGUUCUCAACUAUGACACGCAAAACGCGUGCUCCGUUGAAUGGAGUUUAUCAUG

Variants of: B1
Experiment: polymerase ribozyme fitness, log enrichment relative to wild type (log ratio); higher = more active; in vitro selection for triplet polymerase activity
Procedure, shortened: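 Input and output libraries were sequenced on Illumina after a single in vitro selection round, run in triplicate on PCR-built, transcribed mutant libraries of each subunit of a heterodimeric triplet polymerase ribozyme. Selection annealed libraries to a biotinylated primer, the partner subunit and triplets, incubated them frozen at −7 °C, then gel-excised extended constructs for streptavidin-bead capture and RT-PCR. Genotypes with ≥10 input reads and ≥1 read per output were kept. Fitness is the logarithm, taken in base 2, of genotype enrichment divided by wild-type enrichment, using inverse-variance-weighted replicate averages.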

| Variant | polymerase ribozyme fitness (log ratio) |
| --- | --- |
| C35U C93G | -3.19 |
| C36U U55A A66G C96G | ≤ -4.2 |
| C36A C85U A98G C125A | ≤ -4.2 |
| C35U A37G U55G C105G | ≤ -4.2 |
| A37C A47G A150C | ≤ -4.2 |
| C35U G74U G83C A107C G126A U148C | ≤ -4.2 |
| C35U C54G C85A | -3.81 |
| C35U A66G G80C C103A U145G | ≤ -4.2 |
| C36U A47G G68C G133C | ≤ -4.2 |
| C36A A64U C85A C125U | ≤ -4.2 |
| C36G A39U U55A G94U A120U | ≤ -4.2 |
| C35U C54U C79U G141A | ≤ -4.2 |
| C36G U53A U55G A142U U144G | ≤ -4.2 |
| C36A G92A | -3.98 |
| C35U C75A C85A U139A G143U | ≤ -4.2 |
| C35U A49C C69A A110C C125U | ≤ -4.2 |
| C36A C87U | -3.89 |
| C35U C95U C108G A110U U134C G143C | ≤ -4.2 |
| A37C G48U A106C G124C U144G | ≤ -4.2 |
| A37C A41G G50C C75G A115G | ≤ -4.2 |
| C36A C93A | ≤ -4.2 |
| C36G C57G C72G C118U | ≤ -4.2 |
| A37C C93A C99A A110G | ≤ -4.2 |
| C36A C57U A73C | ≤ -4.2 |

| Variant | polymerase ribozyme fitness (log ratio) |
| --- | --- |
| A37C A52G C57A G80C G84C A91G A115C G140C A142U | ≤ -4.2 |
| C35U U104G G133U | ≤ -4.2 |
| C36G G59A A147G | ≤ -4.2 |
| C35G G58A G100A G126A | ≤ -4.2 |
| C36U U55A G94U C99G C108U C132U A142C | ≤ -4.2 |
| C36U G71A G80U | ≤ -4.2 |
| C35U A39U A66C C79A G124U G143U G152U | ≤ -4.2 |
| C36U C87G G94U A98G | ≤ -4.2 |
| A37C G68C U135G | ≤ -4.2 |
| C36A C43A C51A G88C G124A U130G G136U G141U | ≤ -4.2 |
| A37C A49C C79A G88A C96G C105G | ≤ -4.2 |
| C35U G50U G83U C87A A115C C118G | ≤ -4.2 |
| A37C G65C C93A C125A G126U G133U U135A G141A A142G | ≤ -4.2 |
| A37C A52C U53A G92A | ≤ -4.2 |
| A37C C54A A64G A66C C93A | ≤ -4.2 |
| A37C G67U G83A A106U A119C G143C G152A | ≤ -4.2 |
| C36U U90G | ≤ -4.2 |
| C35U C85U C95A U102G C125A U145G | ≤ -4.2 |
| A37C A60G U61A C95U A97G C116A G117U | ≤ -4.2 |
| A37C C75G C116G U134A | ≤ -4.2 |
| C35U G86A A97U C116U C132G | ≤ -4.2 |
| A37C G68A A91G C105G U130G A150G | ≤ -4.2 |
| A37C A49C G124A U130G | ≤ -4.2 |
| C36U C93U C96G C114G C116A A138C U139G U148C G152A | -4.1 |

| Variant | polymerase ribozyme fitness (log ratio) |
| --- | --- |
| C35U C57G G86U G133A | -3.89 |
| C35U U45A A47C C93A C103G C105A G117A G143C | ≤ -4.2 |
| C35U C95G G100A | ≤ -4.2 |
| C35G U82A G94U G126A A138U | ≤ -4.2 |
| C36G C51U C54U C93G | ≤ -4.2 |
| C35U U61A A113G | ≤ -4.2 |
| C36G G46U A47C U53A U55A U127C C149U | ≤ -4.2 |
| A37C G62C G126U A138G A142C | ≤ -4.2 |
| C35U U77C C95A U146G | ≤ -4.2 |
| A37C G86C | -3.09 |
| C36U U56G A60C U61G C79U C93U C99U G112C U144A A150C | ≤ -4.2 |
| C35U C72U U82G C96U A106G G112A | ≤ -4.2 |
| C35G U61A | ≤ -4.2 |
| C35U G70A U90G U130G G133U | ≤ -4.2 |
| A37C A41C A91U A142C | ≤ -4.2 |
| C35G G126C | ≤ -4.2 |
| C35U A39C U56C C63U A110C A115G A121G G126A | ≤ -4.2 |
| C35G G50C U56A A64U G133C U148G | ≤ -4.2 |
| C35G G92A C118G | ≤ -4.2 |
| A37C G48C G65C G80A A137C | ≤ -4.2 |
| C36U A60G U61A A73U C85G G100U | ≤ -4.2 |
| C35U G59C A60G C85U U104A A120U G128U A147G | ≤ -4.2 |
| C35U C95G C108U A122G U145A | ≤ -4.2 |
| A37C G86U A120U U146G | -3.9 |

| Variant | polymerase ribozyme fitness (log ratio) |
| --- | --- |
| C35U G58U G70A U130G C132G | ≤ -4.2 |
| C36U U53A C72G A91G G143U U146C | ≤ -4.2 |
| C36U G59A A60C C75G C87U | ≤ -4.2 |
| C36U G58C A66C G88U A106C G112C G133U U139G G141C | ≤ -4.2 |
| C36U C87U | -1.6 |
| C35U A91U G140U | ≤ -4.2 |
| C36U U55G C57U A66G A73G | ≤ -4.2 |
| C35U A39C A98G U134C | ≤ -4.2 |
| C35U A49G U53A C87U A89C C95U C132A A142C | ≤ -4.2 |
| C36U A37U A73G A91U C149U G152U | ≤ -4.2 |
| C36A A91U | ≤ -4.2 |
| C36G A47U A91G | ≤ -4.2 |
| C36U A52U | -1.56 |
| A37C G68A | ≤ -4.2 |
| C35G G46A G50A C79U G92C C95U A107G C129G G141C | ≤ -4.2 |
| A37C G68C G84C C85U A97U G126U G143C | ≤ -4.2 |
| C36U C85U A147G A150G | ≤ -4.2 |
| C36A U82G U135C U145G G152U | -3.98 |
| C35U U82G C105G A106U G124C A137G U148G | ≤ -4.2 |
| C36U C51G C75G C93U C108U C125U G136A | ≤ -4.2 |
| C36U C69A A107G | ≤ -4.2 |
| A37C C123A G126C A147C | ≤ -4.2 |
| C35U A91U G100A A115U | ≤ -4.2 |
| C35U A39C U78G C103A | ≤ -4.2 |

| Variant | polymerase ribozyme fitness (log ratio) |
| --- | --- |
| C36G C87A | ≤ -4.2 |
| C35G C95A C99U U102A U111C | ≤ -4.2 |
| C35U A52G C116A G124A | ≤ -4.2 |
| C36A C54U A73G A107G | ≤ -4.2 |
| C35U C57U | 0.194 |
| C35G U53G A64C C79G U109A A115U A142C | ≤ -4.2 |
| C36G A60U G92A C114U G140C A147C | ≤ -4.2 |
| C35U C116U A120G | -0.528 |
| C36G U56A C79U | ≤ -4.2 |
| C35U C96A A97U C116U G117A A138C G140U | ≤ -4.2 |
| C36A C69U C95U U127C | ≤ -4.2 |
| C35U C54U C63G G80A C93U | ≤ -4.2 |
| C36G G59U C76G C95A G133U | ≤ -4.2 |
| C35U G84U A89G C93G A115G C118U G143A | ≤ -4.2 |
| C35U U55A C79U U111C G124U | ≤ -4.2 |
| C35U C63A | -0.573 |
| C36G G42C | ≤ -4.2 |
| C35U G84U A89U A97G G143A | -2.66 |
| C36U C54U G59C A60C U78A C85U U145A | ≤ -4.2 |
| C35G G58C C75G C76U A89U C95G C108A A137C | ≤ -4.2 |
| A37C A40G A52U A60G G70C G86U A119C | ≤ -4.2 |
| A37C G65C G86C G117A | ≤ -4.2 |
| C35U C79U G86A | ≤ -4.2 |
| C36U C99U U139A | ≤ -4.2 |

| Variant | polymerase ribozyme fitness (log ratio) |
| --- | --- |
| C36A A49C C87G C103A C114U | ≤ -4.2 |
| C36G G65A G80A U101G A115G | ≤ -4.2 |
| A37C C76A | -3.34 |
| A37C C76G | ≤ -4.2 |
| A37C A91G A115C | ≤ -4.2 |
| C36A G58A A73G C85U | ≤ -4.2 |
| C35U A64C A89U A91U U101G A142C | ≤ -4.2 |
| C35U A60G C95U A115U U144G | ≤ -4.2 |
| A37C G42A G58A A60G G84A A89C A98U A107C | ≤ -4.2 |
| C35U C72U | -0.649 |
| C35U G94U | -0.729 |
| C36G A37U G86U A115U C116U G128C C132G G152C | ≤ -4.2 |
| C35U C51U G81C C85A A137C | ≤ -4.2 |
| A37C C149G | ≤ -4.2 |
| A37C G62U C95A C129A G140C | ≤ -4.2 |
| C35U C85A C105A | ≤ -4.2 |
| C35U A41C G58C G68U G86U C114A G140A | ≤ -4.2 |
| C35U A73C A91G U102G U139C G140U | ≤ -4.2 |
| C36U A47U G50U G92A | ≤ -4.2 |
| C36G A49C G58A G70C U82G A98U U104A A106G | ≤ -4.2 |
| C35U A60C C69U C93A A98U C103G G126U G143C U144C | ≤ -4.2 |
| C36G U55A G83C G86A C96A A97U A98U C114U C132G | ≤ -4.2 |
| A37C C96U | -1.09 |
| A37C C54U C96U | -0.249 |

| Variant | polymerase ribozyme fitness (log ratio) |
| --- | --- |
| C35U G59C | 0.0057 |
| C35U U135G | -3.62 |
| A37C A64U G84C A122G G136A | ≤ -4.2 |
| C36G U53C G67C G92C G126A | ≤ -4.2 |
| A37C C54G C93A A97U C99U A107G U109A | ≤ -4.2 |
| A37C C38U G71A U109G C123G | ≤ -4.2 |
| C36U C51G C76G G81C A107G G143A | ≤ -4.2 |
| A37C G74A C93A C103G U130A | ≤ -4.2 |
| A37C A60C A73C G88A C96A C105G | ≤ -4.2 |
| A37C G59U C79G C95U | ≤ -4.2 |
| C35U U77C G84C A89G C118U | ≤ -4.2 |
| A37C C57A C87G A115G C116A | ≤ -4.2 |
| C35G U53A G68U C75A C96U C108A | ≤ -4.2 |
| C35U A91G G117U A142U | ≤ -4.2 |
| A37C A41U A52C C118A | -3.42 |
| C36G A39U U56A C57A C87U U148G | ≤ -4.2 |
| C35U U45A C79A G83A C85A C103U | ≤ -4.2 |
| C36A U127G G140A | ≤ -4.2 |
| A37C A40C C116U G124U | ≤ -4.2 |
| C35G C95G A97C C114G G124A A138G | ≤ -4.2 |
| C36A C72G G92A C129A A137U | ≤ -4.2 |
| C36A G42C U55A A66C C69U C105G A122U G126A A142C | ≤ -4.2 |
| C36U G46A A64G G80C | ≤ -4.2 |
